What all share (assay): 6-mer SELEX enrichment z-score vs GST control; IMP3 is the RNA-binding protein IGF2BP3; higher = more enriched by binding
One experiment deals with IMP3 KH1-4. As to conditions: construct: KH1-4 (164-579); SELEX round: R4. Here is the method:
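SELEX-seq with GST-tagged IMP3 KH1-4 (Pro164-Lys579) and an N40 RNA pool, round 4. 6-mer z-score of sequence-tag enrichment normalised to the corresponding GST SELEX round; RNA k-mers written as DNA (T for U).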

A further experiment relates to IMP3 RRM1-2. The following applies: construct: RRM1-2 (1-163); SELEX round: R2. Here is the method:
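SELEX-seq with GST-tagged IMP3 RRM1-2 (Met1-Asn163) and an N40 RNA pool, round 2. 6-mer enrichment z-score normalised to GST SELEX. RNA written as DNA (T = U).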

A further experiment addresses IMP3 full-length (UniProt O00425). As to conditions: construct: FL IMP3 (1-579); SELEX round: R4. Here is the method:
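SELEX-seq with GST-tagged full-length IMP3 and an N40 RNA pool, round 4. Each 6-mer is scored as an enrichment z-score of sequence tags containing it, normalised to the matching GST SELEX round. RNA written as DNA (T = U).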

The test system of the next experiment is IMP3 KH1-2. As to conditions: construct: KH1-2 (164-376); SELEX round: R4. Here is the method: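 SELEX-seq with GST-tagged IMP3 KH1-2 (Pro164-Phe376) and an N40 RNA pool, round 4 (stringent 300/600 mM KCl washes). 6-mer z-score of sequence-tag enrichment normalised to the corresponding GST SELEX round; RNA k-mers written as DNA (T for U).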
IMP3 KH1-2, sequence (chain, as listed by the source): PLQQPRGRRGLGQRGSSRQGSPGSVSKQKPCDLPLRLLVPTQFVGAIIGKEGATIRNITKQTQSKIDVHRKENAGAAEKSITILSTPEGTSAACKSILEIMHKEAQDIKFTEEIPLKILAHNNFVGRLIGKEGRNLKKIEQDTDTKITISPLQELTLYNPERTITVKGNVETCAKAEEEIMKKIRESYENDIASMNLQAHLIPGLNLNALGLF
Another experiment concerns IMP3 KH3-4. As to conditions: construct: KH3-4 (377-579); SELEX round: R4. Here is the method: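 SELEX-seq with GST-tagged IMP3 KH3-4 (Pro377-Lys579) and an N40 RNA pool, round 4. 6-mer z-score of sequence-tag enrichment normalised to the corresponding GST SELEX round; RNA k-mers written as DNA (T for U).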
IMP3 KH3-4, sequence (chain, as listed by the source): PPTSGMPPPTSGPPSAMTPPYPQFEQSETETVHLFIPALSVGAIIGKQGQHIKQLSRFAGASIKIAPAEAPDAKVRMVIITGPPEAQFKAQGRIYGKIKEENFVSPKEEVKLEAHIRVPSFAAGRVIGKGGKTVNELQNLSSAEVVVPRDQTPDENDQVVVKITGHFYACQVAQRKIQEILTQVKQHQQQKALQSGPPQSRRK

This is one part of the list. Values come from read counts of a selection and are noisy. Each score is taken over the longer molecules that contain the sequence shown.

IMP3 KH1-4, sequence (chain, as listed by the source): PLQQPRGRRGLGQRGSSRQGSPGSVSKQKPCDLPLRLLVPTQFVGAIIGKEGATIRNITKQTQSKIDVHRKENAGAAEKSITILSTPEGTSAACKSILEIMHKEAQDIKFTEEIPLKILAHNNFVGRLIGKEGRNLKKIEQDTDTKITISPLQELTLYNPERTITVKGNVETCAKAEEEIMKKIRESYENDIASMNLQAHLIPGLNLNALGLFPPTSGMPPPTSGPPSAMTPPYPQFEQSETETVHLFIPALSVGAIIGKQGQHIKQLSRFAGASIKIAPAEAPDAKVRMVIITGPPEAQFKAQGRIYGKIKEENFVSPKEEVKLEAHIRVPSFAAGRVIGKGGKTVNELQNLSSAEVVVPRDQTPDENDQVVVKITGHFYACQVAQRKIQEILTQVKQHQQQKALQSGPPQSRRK
IMP3 RRM1-2, sequence (chain, as listed by the source): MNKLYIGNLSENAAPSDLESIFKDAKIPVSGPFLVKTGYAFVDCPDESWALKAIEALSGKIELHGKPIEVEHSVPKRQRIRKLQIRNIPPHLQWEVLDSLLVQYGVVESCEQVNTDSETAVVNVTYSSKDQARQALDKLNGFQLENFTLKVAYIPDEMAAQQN
UniProt O00425, sequence (O00425 whole entry): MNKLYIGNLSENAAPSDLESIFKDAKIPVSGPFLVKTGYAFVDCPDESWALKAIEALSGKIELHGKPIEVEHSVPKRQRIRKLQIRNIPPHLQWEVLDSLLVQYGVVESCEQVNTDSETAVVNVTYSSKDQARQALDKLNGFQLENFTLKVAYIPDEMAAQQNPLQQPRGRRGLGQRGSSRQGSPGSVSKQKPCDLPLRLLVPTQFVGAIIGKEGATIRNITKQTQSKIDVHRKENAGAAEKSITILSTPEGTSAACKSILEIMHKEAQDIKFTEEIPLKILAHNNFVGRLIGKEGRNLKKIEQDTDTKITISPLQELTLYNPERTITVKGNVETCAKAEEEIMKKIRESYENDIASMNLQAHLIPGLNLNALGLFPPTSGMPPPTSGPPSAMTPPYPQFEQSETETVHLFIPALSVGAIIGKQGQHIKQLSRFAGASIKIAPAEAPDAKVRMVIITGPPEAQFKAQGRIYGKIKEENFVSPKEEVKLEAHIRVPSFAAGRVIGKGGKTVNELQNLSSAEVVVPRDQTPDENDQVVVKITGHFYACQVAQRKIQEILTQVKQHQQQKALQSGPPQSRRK

Regarding GCCACT, the “6-mer SELEX enrichment z-score” value with IMP3 KH1-4 was found to be 0.474; in the experiment with IMP3 RRM1-2 it was 0.11; with IMP3 full-length, 0.392; in the experiment with IMP3 KH1-2 it was 0.323; in the experiment with IMP3 KH3-4, 0.126.

In the case of CGGTGT, the “6-mer SELEX enrichment z-score” value in the experiment on IMP3 KH1-4 is -0.449; in the experiment with IMP3 RRM1-2, 0.245; with IMP3 full-length it was -0.047; in the experiment with IMP3 KH1-2, -0.368; with IMP3 KH3-4 it was -0.295.

Take CGTCCT: the “6-mer SELEX enrichment z-score” value in the experiment on IMP3 KH1-4 is -0.236; with IMP3 RRM1-2 it was -0.017; in the experiment with IMP3 full-length it was 0.018; in the experiment on IMP3 KH1-2, -0.288; in the experiment with IMP3 KH3-4, -0.416.

Consider TCGGAT, for which the “6-mer SELEX enrichment z-score” value in the experiment on IMP3 KH1-4 stood at 0.493; in the experiment on IMP3 RRM1-2 it was 0.243; with IMP3 full-length, 0.378; in the experiment with IMP3 KH1-2, 0.244; in the experiment on IMP3 KH3-4 it was 0.564.

In the case of AGGTGA, the “6-mer SELEX enrichment z-score” value in the experiment on IMP3 KH1-4 is 0.298; with IMP3 RRM1-2, -0.3; with IMP3 full-length, 0.132; with IMP3 KH1-2, 0.287; in the experiment on IMP3 KH3-4 it was 0.513.

For TAGGCT, the “6-mer SELEX enrichment z-score” value in the experiment on IMP3 KH1-4 is 0.252; in the experiment on IMP3 RRM1-2, 0.541; with IMP3 full-length, 0.328; in the experiment on IMP3 KH1-2, 0.207; in the experiment on IMP3 KH3-4, 0.472.

On to CGAGGA, for which the “6-mer SELEX enrichment z-score” value was -0.611 in the experiment with IMP3 KH1-4; -0.795 in the experiment on IMP3 RRM1-2; -0.305 with IMP3 full-length; -0.498 in the experiment with IMP3 KH1-2; -0.422 with IMP3 KH3-4.

For the sequence CTAAAC, the “6-mer SELEX enrichment z-score” value is -0.726 in the experiment on IMP3 KH1-4; -0.869 in the experiment with IMP3 RRM1-2; -1.51 with IMP3 full-length; -0.659 in the experiment on IMP3 KH1-2; -0.805 in the experiment on IMP3 KH3-4.

GGGAGT: the “6-mer SELEX enrichment z-score” value in the experiment on IMP3 KH1-4 was 0.741; in the experiment on IMP3 RRM1-2, -0.083; in the experiment with IMP3 full-length it was 0.467; in the experiment on IMP3 KH1-2, 0.858; in the experiment on IMP3 KH3-4, 0.807.

Take AAATCC: the “6-mer SELEX enrichment z-score” value in the experiment with IMP3 KH1-4 was -0.485; with IMP3 RRM1-2, -1.27; with IMP3 full-length, -1.26; in the experiment on IMP3 KH1-2, -0.231; with IMP3 KH3-4, -0.94.

Consider GCCGCC, for which the “6-mer SELEX enrichment z-score” value in the experiment on IMP3 KH1-4 was 0.365; in the experiment with IMP3 RRM1-2 it was -0.323; in the experiment with IMP3 full-length, 0.728; with IMP3 KH1-2 it was 0.553; in the experiment with IMP3 KH3-4 it was -0.395.

For TACCTT, the “6-mer SELEX enrichment z-score” value in the experiment on IMP3 KH1-4 was -0.712; in the experiment with IMP3 RRM1-2 it was 0.087; in the experiment with IMP3 full-length, -0.705; in the experiment with IMP3 KH1-2, -0.633; in the experiment on IMP3 KH3-4, -0.705.

Regarding CTTCTA, the “6-mer SELEX enrichment z-score” value came out at 0.528 in the experiment on IMP3 KH1-4; 0.212 in the experiment on IMP3 RRM1-2; 0.028 with IMP3 full-length; 0.561 in the experiment with IMP3 KH1-2; 0.446 with IMP3 KH3-4.

Turning to CGTTCA, the “6-mer SELEX enrichment z-score” value is 0.015 in the experiment on IMP3 KH1-4; 0.597 with IMP3 RRM1-2; 0.586 in the experiment with IMP3 full-length; 0.071 in the experiment on IMP3 KH1-2; -0.153 in the experiment with IMP3 KH3-4.

CATGCA: the “6-mer SELEX enrichment z-score” value in the experiment on IMP3 KH1-4 was determined as 1.64; with IMP3 RRM1-2, 1.49; in the experiment with IMP3 full-length, 1.97; in the experiment with IMP3 KH1-2, 1.4; in the experiment with IMP3 KH3-4, 0.852.

Regarding TTGTAT, the “6-mer SELEX enrichment z-score” value is 0.465 in the experiment on IMP3 KH1-4; 0.212 in the experiment with IMP3 RRM1-2; 0.047 with IMP3 full-length; 0.286 in the experiment on IMP3 KH1-2; 0.649 with IMP3 KH3-4.

Consider ATGCAG, for which the “6-mer SELEX enrichment z-score” value in the experiment on IMP3 KH1-4 turned out to be 1.35; in the experiment with IMP3 RRM1-2, 0.135; with IMP3 full-length it was 0.819; in the experiment with IMP3 KH1-2, 1.02; with IMP3 KH3-4, 0.978.

GCTATG: the “6-mer SELEX enrichment z-score” value with IMP3 KH1-4 is 0.067; in the experiment on IMP3 RRM1-2, 0.047; in the experiment with IMP3 full-length, -0.063; with IMP3 KH1-2 it was 0.104; in the experiment with IMP3 KH3-4, 0.315.

On to GAACTT, for which the “6-mer SELEX enrichment z-score” value in the experiment with IMP3 KH1-4 was -0.2; with IMP3 RRM1-2, -0.504; with IMP3 full-length it was -0.68; with IMP3 KH1-2, -0.227; in the experiment with IMP3 KH3-4, -0.078.

Regarding TACTTG, the “6-mer SELEX enrichment z-score” value was -0.267 in the experiment with IMP3 KH1-4; 0.137 in the experiment with IMP3 RRM1-2; -0.296 with IMP3 full-length; -0.28 with IMP3 KH1-2; -0.149 in the experiment on IMP3 KH3-4.

Consider ATTAGC, for which the “6-mer SELEX enrichment z-score” value was determined as 0.519 in the experiment on IMP3 KH1-4; 0.179 in the experiment with IMP3 RRM1-2; 0.126 in the experiment with IMP3 full-length; 0.355 in the experiment on IMP3 KH1-2; 0.555 in the experiment on IMP3 KH3-4.

For the sequence TCATTA, the “6-mer SELEX enrichment z-score” value in the experiment on IMP3 KH1-4 worked out at 1.5; in the experiment on IMP3 RRM1-2 it was 1.63; with IMP3 full-length it was 1.54; with IMP3 KH1-2, 1.47; in the experiment on IMP3 KH3-4, 1.56.

Turning to TGTCAG, the “6-mer SELEX enrichment z-score” value in the experiment with IMP3 KH1-4 is 0.06; with IMP3 RRM1-2 it was 0.234; in the experiment with IMP3 full-length, 0.291; in the experiment with IMP3 KH1-2, -0.005; in the experiment with IMP3 KH3-4, 0.054.

On to CACCTA, for which the “6-mer SELEX enrichment z-score” value is -0.742 in the experiment with IMP3 KH1-4; -0.266 in the experiment on IMP3 RRM1-2; -0.833 in the experiment with IMP3 full-length; -0.71 in the experiment on IMP3 KH1-2; -1.08 with IMP3 KH3-4.

Take ATACCA: the “6-mer SELEX enrichment z-score” value is -0.141 with IMP3 KH1-4; 0.043 in the experiment on IMP3 RRM1-2; -0.497 in the experiment with IMP3 full-length; -0.238 in the experiment with IMP3 KH1-2; -0.455 with IMP3 KH3-4.

ATACGA: the “6-mer SELEX enrichment z-score” value in the experiment on IMP3 KH1-4 was 0.705; with IMP3 RRM1-2 it was -0.792; with IMP3 full-length it was -0.089; in the experiment on IMP3 KH1-2, 0.484; in the experiment on IMP3 KH3-4 it was 0.523.

CGTAGA: the “6-mer SELEX enrichment z-score” value in the experiment with IMP3 KH1-4 is -2.15; in the experiment with IMP3 RRM1-2 it was -0.6; with IMP3 full-length it was -1.13; with IMP3 KH1-2 it was -2.01; in the experiment on IMP3 KH3-4 it was -1.96.

Source of the values: the supplement of paper PMC6531468.
